Results reported in the supplement of paper PMC4967469.
IC50 is the fitted dose that halves viability relative to control wells, and lower means more sensitive; a limit (>, <) means that the fit lies beyond the doses tested. For AUC the same curve is integrated over the 256-fold range of doses and scaled to a fraction; it is 1 without any effect and falls as sensitivity rises. For part of these data: An inferred top dose was derived from the fitted curves, not read from the paper.

Legend:
Experiment in all cases: Viability of human cancer cell lines after 72 h of drug (GDSC screen)
SL 0101-1 = compound: CC(=O)O[C@@H]1[C@@H](OC(C)=O)[C@@H](O)[C@H](Oc2c(-c3ccc(O)cc3)oc3cc(O)cc(O)c3c2=O)O[C@H]1C [SL 0101-1]; details: top dose 10 µM; top dose inferred
Protocol: (§1)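 Human cancer cell lines in 384-well plates, medium with 10% serum, drug for 72 h over a 256-fold dose range (nine 2-fold or five 4-fold steps up to the top dose). Adherent lines were fixed and stained with the nucleic acid dye Syto60, suspension lines read with resazurin; signal relative to control wells, capped at 0 and 100%. One two-parameter sigmoid per drug and line, fitted in a mixed model over all curves with the slope shared within a line.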

XMD15-27 = compound: C=CC(=O)Nc1ccc(C(=O)c2sc(Nc3ccc(N4CCN(C)CC4)cc3OC)nc2N)cc1 [XMD15-27]; details: top dose 10.24 µM; top dose inferred
Protocol: as §1

Temsirolimus = compound: CO[C@H]1C[C@@H]2CC[C@@H](C)[C@@](O)(O2)C(=O)C(=O)N2CCCC[C@H]2C(=O)O[C@H]([C@H](C)C[C@@H]2CC[C@@H](OC(=O)C(C)(CO)CO)[C@H](OC)C2)CC(=O)[C@H](C)/C=C(\C)[C@@H](O)[C@@H](OC)C(=O)[C@H](C)C[C@H](C)/C=C/C=C/C=C/1C [Temsirolimus]; details: top dose 0.2 µM
Protocol: as §1

Cell Line | AUC (SL 0101-1) | IC50 (SL 0101-1) [µM] | AUC (XMD15-27) | IC50 (XMD15-27) [µM] | AUC (Temsirolimus) | IC50 (Temsirolimus) [µM]
SK-MEL-2 (melanoma, adherent) | 0.977 | > 10 | 0.986 | > 10.2 | 0.785 | 0.0889
SK-MEL-3 (melanoma, adherent) | 0.984 | > 10 | 0.977 | > 10.2 | 0.88 | > 0.2
SK-MEL-5 (melanoma, adherent) | 0.98 | > 10 | 0.983 | > 10.2 | 0.749 | 0.0776
SK-MEL-30 (melanoma, adherent) | 0.967 | > 10 | 0.986 | > 10.2 | 0.865 | 0.194
SK-MES-1 (lung squamous cell carcinoma, adherent) | 0.969 | > 10 | 0.968 | > 10.2 | 0.833 | 0.145
SK-MG-1 (glioma, adherent) | 0.987 | > 10 | 0.987 | > 10.2 | 0.731 | 0.0575
SK-MM-2 (myeloma, suspension) | 0.987 | > 10 | 0.981 | > 10.2 | 0.97 | > 0.2
SK-N-AS (neuroblastoma, adherent) | 0.976 | > 10 | 0.934 | > 10.2 | 0.759 | 0.08
SK-N-FI (neuroblastoma, adherent) | 0.989 | > 10 | 0.99 | > 10.2 | 0.924 | > 0.2
SK-N-SH (neuroblastoma, adherent) | 0.987 | > 10 | 0.983 | > 10.2 | 0.899 | > 0.2
SK-PN-DW (Ewing sarcoma, adherent) | 0.969 | > 10 | 0.986 | > 10.2 | 0.567 | 0.0192
SK-UT-1 (soft tissue, adherent) | 0.989 | > 10 | 0.989 | > 10.2 | 0.684 | 0.0387
SKG-IIIa (cervix, adherent) | 0.983 | > 10 | 0.983 | > 10.2 | 0.832 | 0.195
SKN (uterus, adherent) | 0.975 | > 10 | 0.889 | > 10.2 | 0.417 | 0.00704
SKN-3 (head and neck, adherent) | 0.96 | > 10 | 0.978 | > 10.2 | 0.95 | > 0.2
SLVL (B-cell lymphoma, suspension) | 0.975 | > 10 | 0.969 | > 10.2 | 0.851 | 0.168
SNB75 (glioma, adherent) | 0.965 | > 10 | 0.974 | > 10.2 | 0.814 | 0.18
SNG-M (endometrium, adherent) | 0.968 | > 10 | 0.974 | > 10.2 | 0.888 | > 0.2
SNU-61 (large intestine, adherent) | 0.982 | > 10 | 0.975 | > 10.2 | 0.981 | > 0.2
SNU-81 (large intestine, adherent) | 0.982 | > 10 | 0.981 | > 10.2 | 0.519 | 0.0143

Cell Line | AUC (SL 0101-1) | IC50 (SL 0101-1) [µM] | AUC (XMD15-27) | IC50 (XMD15-27) [µM] | AUC (Temsirolimus) | IC50 (Temsirolimus) [µM]
SNU-387 (liver, adherent) | 0.984 | > 10 | 0.984 | > 10.2 | 0.674 | 0.0411
SNU-407 (large intestine, adherent) | 0.979 | > 10 | 0.983 | > 10.2 | 0.731 | 0.0644
SNU-449 (liver, adherent) | 0.978 | > 10 | 0.986 | > 10.2 | 0.897 | > 0.2
SNU-C1 (large intestine, suspension) | 0.95 | > 10 | 0.98 | > 10.2 | 0.705 | 0.063
SNU-C2B (large intestine, adherent) | 0.934 | > 10 | 0.976 | > 10.2 | 0.84 | > 0.2
SNU-C5 (large intestine, adherent) | 0.986 | > 10 | 0.986 | > 10.2 | 0.89 | > 0.2
ST486 (Burkitt lymphoma, suspension) | 0.985 | > 10 | 0.907 | > 10.2 | 0.921 | > 0.2
SU8686 (pancreas, adherent) | 0.981 | > 10 | 0.985 | > 10.2 | 0.455 | 0.00926
SU-DHL-4 (B-cell lymphoma, suspension) | 0.996 | > 10 | 0.997 | > 10.2 | 0.997 | > 0.2
SU-DHL-5 (B-cell lymphoma, suspension) | 0.992 | > 10 | 0.985 | > 10.2 | 0.143 | 0.00152
SU-DHL-6 (B-cell lymphoma, suspension) | 0.952 | > 10 | 0.927 | 9.03 | 0.297 | 0.00399
SU-DHL-16 (B-cell lymphoma, suspension) | 0.996 | > 10 | 0.967 | > 10.2 | 0.548 | 0.0163
SUIT-2 (pancreas, adherent) | 0.963 | > 10 | 0.97 | > 10.2 | 0.911 | > 0.2
SUP-B15 (lymphoblastic leukaemia, suspension) | 0.971 | > 10 | 0.969 | > 10.2 | 0.599 | 0.023
SUP-HD1 (Hodgkin lymphoma, suspension) | 0.984 | > 10 | 0.95 | > 10.2 | 0.634 | 0.0287
SUP-M2 (anaplastic large cell lymphoma, suspension) | 0.994 | > 10 | 0.729 | 2.37 | 0.898 | 0.145
SUP-T1 (T-cell lymphoblastic leukaemia, suspension) | 0.985 | > 10 | 0.988 | > 10.2 | 0.979 | > 0.2
SW13 (adrenal gland, adherent) | 0.949 | > 10 | 0.988 | > 10.2 | 0.804 | 0.101
SW48 (large intestine, adherent) | 0.945 | > 10 | 0.987 | > 10.2 | 0.922 | > 0.2
SW626 (ovary, adherent) | 0.978 | > 10 | 0.977 | > 10.2 | 0.877 | > 0.2

Cell Line | AUC (SL 0101-1) | IC50 (SL 0101-1) [µM] | AUC (XMD15-27) | IC50 (XMD15-27) [µM] | AUC (Temsirolimus) | IC50 (Temsirolimus) [µM]
SW684 (fibrosarcoma, adherent) | 0.981 | > 10 | 0.983 | > 10.2 | 0.936 | > 0.2
SW756 (cervix, adherent) | 0.985 | > 10 | 0.985 | > 10.2 | 0.869 | > 0.2
SW780 (bladder, adherent) | 0.979 | > 10 | 0.986 | > 10.2 | 0.405 | 0.00669
SW948 (large intestine, adherent) | 0.943 | > 10 | 0.982 | > 10.2 | 0.979 | > 0.2
SW954 (urogenital system, adherent) | 0.965 | > 10 | 0.957 | > 10.2 | 0.88 | > 0.2
SW962 (urogenital system, adherent) | 0.951 | > 10 | 0.978 | > 10.2 | 0.487 | 0.0114
SW982 (soft tissue, adherent) | 0.976 | > 10 | 0.947 | > 10.2 | 0.598 | 0.0234
SW1271 (small cell lung carcinoma, adherent) | 0.984 | > 10 | 0.973 | > 10.2 | 0.863 | > 0.2
SW1417 (large intestine, adherent) | 0.976 | > 10 | 0.983 | > 10.2 | 0.986 | > 0.2
SW1573 (lung adenocarcinoma, adherent) | 0.977 | > 10 | 0.981 | > 10.2 | 0.775 | 0.108
SW1710 (bladder, adherent) | 0.961 | > 10 | 0.981 | > 10.2 | 0.692 | 0.044
SW1783 (glioma, adherent) | 0.983 | > 10 | 0.99 | > 10.2 | 0.913 | > 0.2
Saos-2 (osteosarcoma, adherent) | 0.981 | > 10 | 0.981 | > 10.2 | 0.932 | > 0.2
T47D (breast, adherent) | 0.976 | > 10 | 0.977 | > 10.2 | 0.706 | 0.0661
T84 (large intestine, adherent) | 0.988 | > 10 | 0.989 | > 10.2 | 0.987 | > 0.2
T98G (glioma, adherent) | 0.989 | > 10 | 0.989 | > 10.2 | 0.546 | 0.0166
T-T (oesophagus, adherent) | 0.965 | > 10 | 0.981 | > 10.2 | 0.773 | 0.0777
TE-1 (oesophagus, adherent) | 0.975 | > 10 | 0.982 | > 10.2 | 0.886 | > 0.2
